Test [1] deals with T1, human NTCP (Homo sapiens, UniProt Q14973).
T1 sequence (Q14973 1-349): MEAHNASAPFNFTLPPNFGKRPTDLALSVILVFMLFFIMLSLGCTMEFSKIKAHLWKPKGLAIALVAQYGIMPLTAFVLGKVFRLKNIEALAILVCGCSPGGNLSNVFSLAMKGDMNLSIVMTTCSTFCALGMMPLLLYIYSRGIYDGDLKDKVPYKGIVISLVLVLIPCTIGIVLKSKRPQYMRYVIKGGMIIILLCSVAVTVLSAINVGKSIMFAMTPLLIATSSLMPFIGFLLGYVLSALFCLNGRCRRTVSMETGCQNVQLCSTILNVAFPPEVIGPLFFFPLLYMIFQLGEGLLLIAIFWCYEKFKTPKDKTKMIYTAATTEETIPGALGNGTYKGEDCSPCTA
Briefly: Screening taurocholate uptake assay (96-well, [14C]taurocholate, 10 µM drug). Conditions: for remaining activity at 10 µM: 10 min, read-out: %NTCP activity.

Test [2] addresses T1, human NTCP. Briefly: Screening fluorescent competitive Myrcludex B-FITC binding assay (96-well, 10 µM drug). The conditions noted are these: for remaining activity at 10 µM: 0.5 h; for %NTCP binding: Prestwick library screen, 10 µM drug, Myrcludex B-FITC binding.

Where a name gives a salt, the structure may show the parent alone. Read-outs that look alike come from different tables or passages of the source.

For `CC(C)[C@H]1CC[C@H](C(=O)N[C@H](Cc2ccccc2)C(=O)O)CC1` [Nateglinide], the remaining activity at 10 µM was 83% in test [1] and 85.5% in test [2] (read-out: %NTCP binding).

On to `CN1CCOC(c2ccccc2)c2ccccc2C1` (stereo not shown) [Nefopam hydrochloride], for which the figures for the remaining activity at 10 µM in test [1] and in test [2] (read-out: %NTCP binding) were 138% and 53.7%, respectively.

Take `NC[C@@H]1O[C@H](O[C@H]2[C@@H](O)[C@H](O[C@@H]3[C@@H](O)[C@H](N)C[C@H](N)[C@H]3O[C@H]3O[C@H](CN)[C@@H](O)[C@H](O)[C@H]3N)O[C@@H]2CO)[C@H](N)[C@@H](O)[C@@H]1O.O=S(=O)(O)O` [Neomycin sulfate]: the “%NTCP activity” value in test [1] (Prestwick library screen, 10 µM drug, [14C]taurocholate uptake) is listed as 107.88%. The “%NTCP binding” value in test [2] is given as 84.9905%.

Regarding `CN(C)C(=O)Oc1cccc([N+](C)(C)C)c1` [Neostigmine bromide], the remaining activity at 10 µM in test [1] came out at 64.5%; in test [2] (read-out: %NTCP binding, Prestwick library screen, Myrcludex B-FITC binding, 10 µM drug) it was 64.6%.

`Cc1ccnc2c1NC(=O)c1cccnc1N2C1CC1` [Nevirapine]: the figures for the remaining activity at 10 µM in test [1] and in test [2] (read-out: %NTCP binding) were 77.2% and 102%, respectively.

On to `O=C(CCNNC(=O)c1ccncc1)NCc1ccccc1` [Nialamide], for which the remaining activity at 10 µM in test [1] and in test [2] (read-out: %NTCP binding) was 96.2% each time.

`CO[C@]12C[C@@H](COC(=O)c3cncc(Br)c3)CN(C)[C@@H]1Cc1cn(C)c3cccc2c13` [Nicergoline]: the remaining activity at 10 µM is 56.1% in test [1] and 82.1% in test [2] (read-out: %NTCP binding).

Turning to `O=C(NCCO[N+](=O)[O-])c1cccnc1` [Nicorandil], the remaining activity at 10 µM in test [1] is 57%; in test [2] (read-out: %NTCP binding), 95.2%.

Consider `NC(=O)c1cccnc1` [Nicotinamide], for which the remaining activity at 10 µM was found to be 140% in test [1] and 80.1% in test [2] (read-out: %NTCP binding).

As for `Cn1c(NCCN(CCO)CCCc2ccc([N+](=O)[O-])cc2)cc(=O)n(C)c1=O` [Nifekalant], the remaining activity at 10 µM in test [1] was determined as 92%; in test [2] (read-out: %NTCP binding), 91.3%.

For `Cc1c(NC(=O)c2cccnc2)c(=O)n(-c2ccccc2)n1C` [Nifenazone], the remaining activity at 10 µM came out at 94.6% in test [1] and 63.3% in test [2] (read-out: %NTCP binding).

Regarding `O=C(O)c1cccnc1Nc1cccc(C(F)(F)F)c1` [Niflumic acid], the figures for the remaining activity at 10 µM in test [1] and in test [2] (read-out: %NTCP binding) were 17% and 91.3%, respectively.

For `O=C(N/N=C/c1ccc([N+](=O)[O-])o1)c1ccc(O)cc1` [Nifuroxazide], the figures for the remaining activity at 10 µM in test [1] and in test [2] (read-out: %NTCP binding) were 79.3% and 75.2%, respectively.

For `CC1(C)NC(=O)N(c2ccc([N+](=O)[O-])c(C(F)(F)F)c2)C1=O` [Nilutamide], the remaining activity at 10 µM in test [1] stood at 103%; in test [2] (read-out: %NTCP binding), 88%.

For the compound `COC(=O)C1=C(C#N)NC(C)=C(C(=O)OC(C)C)C1c1cccc([N+](=O)[O-])c1` (stereo not shown) [Nilvadipine], the remaining activity at 10 µM was 65.9% in test [1] and 86.8% in test [2] (read-out: %NTCP binding).

`O=C1NCCN1c1ncc([N+](=O)[O-])s1` [Niridazole]: the remaining activity at 10 µM turned out to be 23.8% in test [1] and 46.6% in test [2] (read-out: %NTCP binding).

Regarding `CNCCC(Oc1ccccc1OC)c1ccccc1` (stereo not shown) [Nisoxetine hydrochloride], the remaining activity at 10 µM in test [1] turned out to be 56.3%; in test [2] (read-out: %NTCP binding), 108%.

On to `CCN(CC)CCOC(=O)C1(c2ccc([N+](=O)[O-])cc2)CCCC1.Cl` [Nitrocaramiphen hydrochloride], for which the “%NTCP activity” value in test [1] stood at 106.74%. Also, the “%NTCP binding” value in test [2] is listed as 112.605%.

Take `NC(=O)N/N=C/c1ccc([N+](=O)[O-])o1` [Nitrofural]: the remaining activity at 10 µM was determined as 54.3% in test [1] and 77.8% in test [2] (read-out: %NTCP binding).

`CNC(=C[N+](=O)[O-])NCCSCc1csc(CN(C)C)n1` [Nizatidine]: the remaining activity at 10 µM was determined as 68.1% in test [1] and 103% in test [2] (read-out: %NTCP binding).

Turning to `COC(=O)Nc1nc2ccc(C(=O)c3cccs3)cc2[nH]1` [Nocodazole], the remaining activity at 10 µM in test [1] came to 53.9%; in test [2] (read-out: %NTCP binding), 86.3%.

As to `CC(=O)O[C@]1(C(C)=O)CC[C@H]2[C@@H]3C=C(C)C4=CC(=O)CC[C@@H]4[C@H]3CC[C@@]21C` [Nomegestrol acetate], the remaining activity at 10 µM in test [1] is 69.7%; in test [2] (read-out: %NTCP binding), 85.4%.

Turning to `CN1Cc2c(N)cccc2C(c2ccccc2)C1` (stereo not shown) [Nomifensine maleate], the remaining activity at 10 µM in test [1] was 67.5%; in test [2] (read-out: %NTCP binding) it was 80.4%.

The record behind these values is publication PMC5681660, “Reduced hepatitis B and D viral entry using clinically applied drugs as novel inhibitors of the bile acid transporter NTCP” (Scientific Reports, 2017).
